The record followed here is article PMC5062570 (Nature Communications, 2016).

Molecules are shown by their SMILES. Where “and” joins values, the source holds several entries; their conditions need not be identical. Equal entries are not always repeated.

For experiment [1], the target named is PF-7802-labelled proteins in ARPE-19 cells (Homo sapiens, UniProt P07339).
For experiment [2], the target named is PF-7802-labelled proteins in ARPE-19 cells (Homo sapiens, UniProt P10412). As to conditions: P10412 HIST1H1E Histone H1.4.
Experiment [3] has as its target PF-7802-labelled proteins in ARPE-19 cells (Homo sapiens, UniProt P61158). The note with it: protein ACTR3 Actin-related protein 3 (P61158).
In experiment [4] the target is PF-7802-labelled proteins in ARPE-19 cells (Homo sapiens, UniProt P35579).
Experiment [5] concerns the target PF-7802-labelled proteins in ARPE-19 cells (Homo sapiens, UniProt O14950). The note with it: protein MYL12B Myosin regulatory light chain 12B (O14950); replicates in separate columns.
The target of experiment [6] is PF-7802-labelled proteins in ARPE-19 cells (Homo sapiens, UniProt P07237).
Experiment [7] concerns the target PF-7802-labelled proteins in ARPE-19 cells (Homo sapiens, UniProt P29401).
The target in experiment [8] is PF-7802-labelled proteins in ARPE-19 cells (Homo sapiens, UniProt P05141). As to conditions: SLC25A5 ADP/ATP translocase 2 (P05141).
Experiment [9] addresses PF-7802-labelled proteins in ARPE-19 cells (Homo sapiens, UniProt P0CG48). The note with it: UBC Polyubiquitin-C (P0CG48).
Experiment [10] has as its target PF-7802-labelled proteins in ARPE-19 cells (Homo sapiens, UniProt P63096). As to conditions: P63096 GNAI1 Guanine nucleotide-binding protein G(i) subunit alpha-1.
In experiment [11] the target is PF-7802-labelled proteins in ARPE-19 cells (Homo sapiens, UniProt Q9NRV9). The note with it: Q9NRV9 HEBP1 Heme-binding protein 1.
Experiment [12] has as its target PF-7802-labelled proteins in ARPE-19 cells (Homo sapiens, UniProt P00505). As to conditions: P00505 GOT2 Aspartate aminotransferase, mitochondrial.
Experiment [13] has as its target PF-7802-labelled proteins in ARPE-19 cells (Homo sapiens, UniProt P55209). The note with it: protein NAP1L1 Nucleosome assembly protein 1-like 1 (P55209); replicates in separate columns.
The target in experiment [14] is PF-7802-labelled proteins in ARPE-19 cells (Homo sapiens, UniProt Q96PK6). The note with it: protein RBM14 RNA-binding protein 14, Q96PK6.
Experiment [15] addresses PF-7802-labelled proteins in ARPE-19 cells (Homo sapiens, UniProt Q15629). As to conditions: TRAM1 Translocating chain-associated membrane protein 1 (Q15629).
For experiment [16], the target named is PF-7802-labelled proteins in ARPE-19 cells (Homo sapiens, UniProt P63173). The note with it: protein RPL38 60S ribosomal protein L38, P63173.
Experiment [17] deals with PF-7802-labelled proteins in ARPE-19 cells (Homo sapiens, UniProt O43790). The note with it: protein KRT86 Keratin, type II cuticular Hb6 (O43790); replicates in separate columns.
Experiment [18] has as its target PF-7802-labelled proteins in ARPE-19 cells (Homo sapiens, UniProt Q8N4C6). As to conditions: protein NIN Ninein (Q8N4C6); replicates in separate columns.
For experiment [19], the target named is PF-7802-labelled proteins in ARPE-19 cells (Homo sapiens, UniProt Q96AG4). As to conditions: protein LRRC59 Leucine-rich repeat-containing protein 59 (Q96AG4); replicates in separate columns.
For experiment [20], the target named is PF-7802-labelled proteins in ARPE-19 cells (Homo sapiens, UniProt P62070). The note with it: protein RRAS2 Ras-related protein R-Ras2, P62070.
The target of experiment [21] is PF-7802-labelled proteins in ARPE-19 cells (Homo sapiens, UniProt Q9HD20). The note with it: protein ATP13A1 Probable cation-transporting ATPase 13A1 (Q9HD20).
In experiment [22] the target is PF-7802-labelled proteins in ARPE-19 cells (Homo sapiens, UniProt P62306). As to conditions: SNRPF Small nuclear ribonucleoprotein F (P62306).
Experiment [23] deals with PF-7802-labelled proteins in ARPE-19 cells (Homo sapiens, UniProt Q9UII2). As to conditions: protein ATPIF1 ATPase inhibitor, mitochondrial (Q9UII2).
Experiment [24] deals with PF-7802-labelled proteins in ARPE-19 cells (Homo sapiens, UniProt P40925). As to conditions: protein MDH1 Malate dehydrogenase, cytoplasmic (P40925); replicates in separate columns.
Experiment [25] concerns the target PF-7802-labelled proteins in ARPE-19 cells (Homo sapiens, UniProt Q9Y696). The note with it: protein CLIC4 Chloride intracellular channel protein 4 (Q9Y696).
The target of experiment [26] is PF-7802-labelled proteins in ARPE-19 cells (Homo sapiens, UniProt A0A8I5KQE6). As to conditions: protein RPSAP58 Protein RPSAP58, A6NE09.
The target in experiment [27] is PF-7802-labelled proteins in ARPE-19 cells (Homo sapiens, UniProt Q13509). The note with it: TUBB3 Tubulin beta-3 chain (Q13509).
Chain of UniProt Q13509 (Q13509 whole entry): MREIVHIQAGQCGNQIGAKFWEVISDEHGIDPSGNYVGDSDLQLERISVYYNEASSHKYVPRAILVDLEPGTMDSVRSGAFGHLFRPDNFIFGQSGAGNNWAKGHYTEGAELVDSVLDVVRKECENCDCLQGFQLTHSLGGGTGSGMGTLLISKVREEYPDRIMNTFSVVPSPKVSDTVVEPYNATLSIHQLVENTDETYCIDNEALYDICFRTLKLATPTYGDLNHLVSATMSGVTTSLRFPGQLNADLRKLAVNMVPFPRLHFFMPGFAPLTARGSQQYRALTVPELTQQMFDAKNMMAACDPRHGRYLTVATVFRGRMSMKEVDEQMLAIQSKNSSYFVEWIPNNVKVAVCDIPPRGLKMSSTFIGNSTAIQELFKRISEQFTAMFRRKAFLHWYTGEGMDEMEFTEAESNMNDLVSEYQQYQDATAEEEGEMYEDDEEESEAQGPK

Chain of UniProt P35579 (P35579 whole entry): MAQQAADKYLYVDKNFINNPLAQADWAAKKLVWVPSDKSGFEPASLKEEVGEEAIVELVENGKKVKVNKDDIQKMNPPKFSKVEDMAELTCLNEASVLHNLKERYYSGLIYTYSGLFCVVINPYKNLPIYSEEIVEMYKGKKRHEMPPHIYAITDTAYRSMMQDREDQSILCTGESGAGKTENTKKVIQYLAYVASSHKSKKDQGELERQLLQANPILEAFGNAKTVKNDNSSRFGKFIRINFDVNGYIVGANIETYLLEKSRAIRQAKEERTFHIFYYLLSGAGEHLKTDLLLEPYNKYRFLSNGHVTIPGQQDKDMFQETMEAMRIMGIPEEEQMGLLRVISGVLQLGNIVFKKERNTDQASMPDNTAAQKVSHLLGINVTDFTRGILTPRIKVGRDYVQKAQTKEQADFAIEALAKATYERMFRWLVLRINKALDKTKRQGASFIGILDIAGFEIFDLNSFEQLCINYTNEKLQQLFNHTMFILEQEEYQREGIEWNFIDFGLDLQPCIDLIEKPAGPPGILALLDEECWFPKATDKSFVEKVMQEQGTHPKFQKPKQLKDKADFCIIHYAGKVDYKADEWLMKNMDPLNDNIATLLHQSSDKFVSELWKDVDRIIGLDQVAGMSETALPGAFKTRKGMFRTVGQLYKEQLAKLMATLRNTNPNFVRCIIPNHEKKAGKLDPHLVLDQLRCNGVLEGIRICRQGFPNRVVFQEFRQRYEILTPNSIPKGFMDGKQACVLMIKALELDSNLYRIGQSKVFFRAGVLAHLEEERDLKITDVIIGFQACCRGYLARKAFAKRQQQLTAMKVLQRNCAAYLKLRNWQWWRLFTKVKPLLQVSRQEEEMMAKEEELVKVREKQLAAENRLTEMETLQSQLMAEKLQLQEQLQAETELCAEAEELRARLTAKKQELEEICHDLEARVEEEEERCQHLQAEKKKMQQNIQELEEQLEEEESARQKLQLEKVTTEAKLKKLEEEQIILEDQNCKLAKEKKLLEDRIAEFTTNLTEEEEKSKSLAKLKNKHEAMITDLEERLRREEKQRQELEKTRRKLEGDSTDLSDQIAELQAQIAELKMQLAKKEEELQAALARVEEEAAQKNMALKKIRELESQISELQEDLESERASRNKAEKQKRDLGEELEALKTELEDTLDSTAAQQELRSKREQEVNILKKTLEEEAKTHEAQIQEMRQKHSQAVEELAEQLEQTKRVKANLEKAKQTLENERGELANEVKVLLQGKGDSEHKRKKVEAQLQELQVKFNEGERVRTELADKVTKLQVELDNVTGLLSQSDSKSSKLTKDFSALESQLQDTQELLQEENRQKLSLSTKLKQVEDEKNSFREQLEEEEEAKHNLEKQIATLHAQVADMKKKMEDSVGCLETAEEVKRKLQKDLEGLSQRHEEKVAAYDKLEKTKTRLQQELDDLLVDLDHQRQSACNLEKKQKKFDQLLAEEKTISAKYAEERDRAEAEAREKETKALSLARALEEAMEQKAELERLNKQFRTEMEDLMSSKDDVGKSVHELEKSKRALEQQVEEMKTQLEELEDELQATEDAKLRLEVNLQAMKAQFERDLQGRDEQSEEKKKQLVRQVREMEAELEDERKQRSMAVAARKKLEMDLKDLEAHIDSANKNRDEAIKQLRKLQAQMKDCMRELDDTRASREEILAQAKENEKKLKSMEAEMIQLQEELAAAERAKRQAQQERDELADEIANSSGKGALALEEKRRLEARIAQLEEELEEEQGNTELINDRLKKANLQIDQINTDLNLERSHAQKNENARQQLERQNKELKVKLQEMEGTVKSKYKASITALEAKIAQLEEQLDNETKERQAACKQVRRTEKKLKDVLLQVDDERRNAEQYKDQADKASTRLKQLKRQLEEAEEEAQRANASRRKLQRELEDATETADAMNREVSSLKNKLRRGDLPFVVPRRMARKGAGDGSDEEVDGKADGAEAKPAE
Chain of UniProt P62306 (P62306 whole entry): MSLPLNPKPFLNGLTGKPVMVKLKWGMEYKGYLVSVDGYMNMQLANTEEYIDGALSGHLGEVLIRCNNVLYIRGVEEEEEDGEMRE
Chain of UniProt P40925 (P40925 whole entry): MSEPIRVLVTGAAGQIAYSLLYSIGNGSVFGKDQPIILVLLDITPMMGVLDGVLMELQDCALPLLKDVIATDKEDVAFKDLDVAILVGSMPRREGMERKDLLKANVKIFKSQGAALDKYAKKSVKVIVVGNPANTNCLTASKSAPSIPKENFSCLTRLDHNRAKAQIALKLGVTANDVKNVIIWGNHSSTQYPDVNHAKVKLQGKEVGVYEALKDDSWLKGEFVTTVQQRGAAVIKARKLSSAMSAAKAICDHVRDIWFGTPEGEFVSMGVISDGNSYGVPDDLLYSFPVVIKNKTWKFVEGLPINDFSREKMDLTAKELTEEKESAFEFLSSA
Chain of UniProt P05141 (P05141 whole entry): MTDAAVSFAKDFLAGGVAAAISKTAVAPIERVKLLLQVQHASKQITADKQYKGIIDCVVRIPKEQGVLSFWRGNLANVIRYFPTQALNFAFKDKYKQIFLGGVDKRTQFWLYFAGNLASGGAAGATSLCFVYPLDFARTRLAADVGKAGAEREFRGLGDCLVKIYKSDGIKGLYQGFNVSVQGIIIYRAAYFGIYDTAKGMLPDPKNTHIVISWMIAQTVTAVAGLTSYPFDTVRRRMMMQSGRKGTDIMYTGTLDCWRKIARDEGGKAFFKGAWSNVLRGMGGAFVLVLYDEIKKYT
Chain of UniProt P62070 (P62070 whole entry): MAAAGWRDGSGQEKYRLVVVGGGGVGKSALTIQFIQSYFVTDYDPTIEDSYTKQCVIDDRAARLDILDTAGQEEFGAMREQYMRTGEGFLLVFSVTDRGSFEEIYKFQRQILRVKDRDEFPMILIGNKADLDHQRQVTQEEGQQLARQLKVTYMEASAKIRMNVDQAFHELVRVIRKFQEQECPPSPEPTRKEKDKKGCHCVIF
Chain of UniProt P29401 (P29401 whole entry): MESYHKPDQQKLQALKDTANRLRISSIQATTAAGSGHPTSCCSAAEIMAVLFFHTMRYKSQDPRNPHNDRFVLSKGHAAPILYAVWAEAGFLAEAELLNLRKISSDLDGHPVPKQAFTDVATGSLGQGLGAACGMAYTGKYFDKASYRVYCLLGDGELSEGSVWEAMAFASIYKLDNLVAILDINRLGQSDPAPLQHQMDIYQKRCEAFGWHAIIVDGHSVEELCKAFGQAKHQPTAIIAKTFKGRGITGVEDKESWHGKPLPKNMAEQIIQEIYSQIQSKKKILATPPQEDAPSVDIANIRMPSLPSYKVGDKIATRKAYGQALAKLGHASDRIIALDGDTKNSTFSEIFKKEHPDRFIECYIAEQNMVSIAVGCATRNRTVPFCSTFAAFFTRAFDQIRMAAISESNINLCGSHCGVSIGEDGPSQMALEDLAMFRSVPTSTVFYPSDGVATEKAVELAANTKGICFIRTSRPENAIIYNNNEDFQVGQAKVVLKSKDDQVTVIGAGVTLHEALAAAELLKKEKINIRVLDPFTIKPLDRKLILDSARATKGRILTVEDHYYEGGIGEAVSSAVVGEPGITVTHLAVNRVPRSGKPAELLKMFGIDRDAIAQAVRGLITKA
Chain of UniProt P0CG48 (P0CG48 whole entry): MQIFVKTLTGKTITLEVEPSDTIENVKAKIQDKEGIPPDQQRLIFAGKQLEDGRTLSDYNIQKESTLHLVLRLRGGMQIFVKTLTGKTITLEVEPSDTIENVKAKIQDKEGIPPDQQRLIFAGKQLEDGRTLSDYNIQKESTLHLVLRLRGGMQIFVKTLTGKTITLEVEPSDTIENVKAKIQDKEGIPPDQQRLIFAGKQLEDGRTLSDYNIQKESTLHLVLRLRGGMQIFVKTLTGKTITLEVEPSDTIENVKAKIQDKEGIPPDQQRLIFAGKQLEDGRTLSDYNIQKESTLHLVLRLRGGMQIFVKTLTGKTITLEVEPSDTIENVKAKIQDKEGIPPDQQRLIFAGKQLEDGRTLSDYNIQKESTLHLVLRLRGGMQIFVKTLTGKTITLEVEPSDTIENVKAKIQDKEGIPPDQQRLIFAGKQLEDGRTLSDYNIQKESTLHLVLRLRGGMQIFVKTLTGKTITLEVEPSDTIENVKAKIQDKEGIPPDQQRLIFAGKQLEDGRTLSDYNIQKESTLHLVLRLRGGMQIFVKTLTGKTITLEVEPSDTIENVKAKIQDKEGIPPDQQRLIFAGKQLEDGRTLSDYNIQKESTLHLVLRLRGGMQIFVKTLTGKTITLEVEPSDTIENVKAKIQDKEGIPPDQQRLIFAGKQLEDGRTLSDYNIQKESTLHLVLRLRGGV
Chain of UniProt O14950 (O14950 whole entry): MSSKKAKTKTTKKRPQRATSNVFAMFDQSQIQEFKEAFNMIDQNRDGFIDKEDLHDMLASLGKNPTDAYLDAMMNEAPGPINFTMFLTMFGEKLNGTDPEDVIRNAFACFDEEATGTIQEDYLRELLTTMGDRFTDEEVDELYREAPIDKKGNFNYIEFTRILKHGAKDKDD

With `CNC1CCN(C(=O)C[C@@H](Cc2ccccc2)C(=O)N[C@@H](CSC)C(=O)N[C@@H](CC2CCCCC2)[C@@H](O)C(=O)OC(C)C)CC1` [CP-108671, reference compound], the “SILAC ratio (DMSO/CP-108671)” value in experiment [1] (P07339 CTSD Cathepsin D) is recorded as 3.62; in experiment [2], 0.89; in [4] (P35579 MYH9 Myosin-9), 0.55; in experiment [6] (P07237 P4HB Protein disulfide-isomerase) it was 0.89; in experiment [7] (P29401 TKT Transketolase) it was 0.49; in experiment [10], 0.86. Besides, the figures for the “SILAC ratio (DMSO/CP-108671)” value in experiment [11] and in experiment [12] were 0.56 and 0.90, respectively. The “SILAC result for CatD” value in experiment [1] (pretreatment 2 µM inhibitor, PF-7802 100 nM, ARPE-19 cells) is “high SILAC ratios for CatD”. In addition, the “Median SILAC Ratio (Heavy/Light)” value in experiment [1] (protein CTSD Cathepsin D (P07339)) is 0.2845 and 0.2761; in experiment [3] it was 1.541; in experiment [4] (protein MYH9 Myosin-9 (P35579), replicates in separate columns), 1.87 and 0.9103; in experiment [5] it was 1.915; in experiment [6] (protein P4HB Protein disulfide-isomerase (P07237), replicates in separate columns) it was 1.179 and 0.8914; in experiment [7] (TKT Transketolase (P29401)), 2.025. For the same compound, the “Median SILAC Ratio (Heavy/Light)” value is 1.019 and 0.923 in experiment [8]; 1.414 and 1.581 in [9].

With `Cc1cc([C@H]2C[C@H]3[C@@H](C)SC(N)=N[C@@]3(c3ccc(F)cc3F)CO2)on1` [PF-9283], the “Median SILAC Ratio (Heavy/Light)” value worked out at 2.407 in [13]; 1.076 in [14]; 0.5188 in experiment [15]; 1.704 in experiment [16]; 115.765 in [17]; 0.5867 in [18]. The “Median SILAC Ratio (Heavy/Light)” value in [19] is 1.355; in experiment [20], 1.586 and 2.902; in experiment [21], 0.6552; in experiment [22] it was 1.336 and 0.9887; in experiment [23], 0.8215; in experiment [24], 1.406 and 1.203. Also, the “Median SILAC Ratio (Heavy/Light)” value in experiment [25] was 2.025; in [26], 1.593 and 2.041; in experiment [27], 1.723.
